In PubChem BioAssay AID2451 (National Center for Advancing Translational Sciences (NCATS), 2010):
About 2,100 (0.72%) of roughly 290,000 compounds were called active. Inconclusive means that the source gave no clear call. Such entries were picked first, then a sample of the others. Calls come from the whole dose curve; as a rule, active = well fitted inhibition curve with a large enough effect; inconclusive = small, poorly fitted or top-dose-only effect, or effect the other way; inactive = flat fitted curve, though single readings scatter. Where the call is inconclusive, the potency comes from a doubtful curve fit.
% is set by controls: 0 for no effect and ±100 for the full control effect; potency is the fitted concentration of half-maximal effect; tags give direction and shape of the fitted curve.
Note: nearly all actives have a fitted effect of over 55% in size.

Each compound was assayed against Fructose-bisphosphate aldolase (Giardia intestinalis (strain ATCC 50803 / WB clone C6)) (UniProt A8B2U2) (assay: qHTS Assay for Inhibitors of Fructose-1,6-bisphosphate Aldolase from Giardia Lamblia). Settings: purified Giardia FBPA; activity, negative = inhibition: at 59.6 µM (top of the series) unless noted.
Sequence of UniProt A8B2U2 (A8B2U2 whole entry, looked up): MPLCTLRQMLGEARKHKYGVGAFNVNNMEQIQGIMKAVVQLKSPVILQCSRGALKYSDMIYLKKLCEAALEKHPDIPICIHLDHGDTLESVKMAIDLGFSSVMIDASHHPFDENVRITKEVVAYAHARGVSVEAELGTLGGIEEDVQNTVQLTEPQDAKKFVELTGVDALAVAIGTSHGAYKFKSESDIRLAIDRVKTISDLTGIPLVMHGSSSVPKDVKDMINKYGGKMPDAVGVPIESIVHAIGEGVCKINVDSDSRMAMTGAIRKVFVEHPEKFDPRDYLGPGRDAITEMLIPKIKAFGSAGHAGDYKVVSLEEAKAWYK
How it was run: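 40 nM FBPA preincubated 10 min at RT with compound (up to 57.5 uM final), then substrate plus GAPDH/TPI/NAD/arsenate coupling and diaphorase/resazurin added. Fluorescence read after 20 min at RT, 525/598 nm.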
For c1ccc(C2Nc3cccc4cccc(c34)N2)cc1, the Potency was inconclusive: 31.6 µM [inhibitor, single point]. COc1cnc(-c2ccccn2)nc1Oc1ccc(Cl)cc1 was tested, and the Potency was inconclusive: 11.2 µM [inhibitor, partial curve]. NC(=O)c1cc2c3ccccc3ccn2c1-c1ccccc1 was tested, and the Potency was inconclusive: 28.1 µM [inhibitor, single point]. In the case of COc1ccc2c(C)c(C(=O)N3CCN(Cc4ccccc4)CC3)oc2c1, the Potency was inconclusive: 31.6 µM [inhibitor, single point]. In the case of CCN(CC)C(=O)CN1CCN(Cc2ccc3c(c2)OCO3)CC1, the Potency was inconclusive: 17.8 µM [inhibitor, single point]. O=C(/C=C/c1ccccc1)NC(=S)Nc1cccnc1 was tested, and the “activity, negative = inhibition” value was inactive: -2.29%. Cc1cc(N2CCN(c3ccccc3)CC2)nc(-c2ccccc2)n1 was tested, and the “activity, negative = inhibition” value was inactive: 0.337%. In the case of C1=CCC(CN2CCN(C3CCCCCC3)CC2)CC1 (stereo unspecified), the Potency was active: 14.1 µM. In the case of CC(=O)[C@@H]1[C@@H]2C(=O)N(Cc3ccccc3)C(=O)[C@@H]2C2c3ccccc3C=CN21 (stereo partly specified), the Potency was inconclusive: 3.97 µM [inhibitor, full curve, poor fit]. With COC(=O)[C@@H](N)CS the Potency was active: 15.8 µM. With COC(=O)C1OC(=O)C2O[C@@]23[C@]2(C)C(OC(C)=O)CC4C(C)(C)C(=O)CC[C@]4(C)C2CC[C@@]13C (stereo partly specified) the “activity, negative = inhibition” value was inactive: 6.02%. For O=C(C1=C(Nc2ccccc2)c2ccccc2S(=O)(=O)N1)c1ccccc1, the Potency was inconclusive: 6.29 µM [inhibitor, partial curve]. In the case of CN1CCN(CCCc2c3c(cc4c2CCC4)CCC3)CC1, the “activity, negative = inhibition” value was inactive: -5.89%. For Cc1ccccc1S(=O)(=O)NNC(=O)C(=O)NNc1ccccn1, the Potency was inconclusive: 35.4 µM [activator, single point]. In the case of COc1ccc(Nc2nc(-c3c(C)nc4ncccn34)cs2)cc1, the Potency was inconclusive: 14.1 µM [inhibitor, partial curve]. CCOc1ccc(NC(=S)Nc2cccc3ccccc23)cc1 was tested, and the Potency was inconclusive: 35.5 µM [inhibitor, single point]. With Cc1nc(SCC(=O)c2ccc(F)cc2)n[nH]1 the Potency was active: 28.2 µM. For COc1ccccc1C(=O)NC(=S)Nc1ccc(Cc2ccncc2)cc1, the Potency was inconclusive: 25.1 µM [inhibitor, single point]. For CN1CCN(C(=O)c2cc3c(ccc4ccccc43)oc2=O)CC1, the Potency was inconclusive: 14.1 µM [inhibitor, partial curve]. For O=C(NC1CCCN(Cc2ccc(Cl)cc2)C1)c1ccccc1-c1ncc[nH]1 (stereo unspecified), the Potency was inconclusive: 28.2 µM [inhibitor, partial curve]. CC(=O)c1cccc(NC(=O)c2ccc(-c3ccccc3[N+](=O)[O-])o2)c1 was tested, and the Potency was active: 9.98 µM. For CCOC(=O)C1CCN(Cc2ccc(OC)c(OCc3ccccc3)c2)CC1, the Potency was inconclusive: 15.8 µM [inhibitor, partial curve]. For Fc1cccc(CN2CCN(c3ncccn3)CC2)c1, the Potency was inconclusive: 15.8 µM [inhibitor, partial curve]. With CC1CCC(NC(=O)Cn2ncc3ccccc32)CC1 (stereo unspecified) the “activity, negative = inhibition” value was inactive: 6.27%. With COc1ccc2c(c1)C(=O)N(CCc1ccc(S(=O)(=O)NC(=O)NC3CCCCC3)cc1)C(=O)C2(C)C the Potency was inconclusive: 17.7 µM [activator, single point]. In the case of CC(=O)c1cnc2cc(-c3ccc(C)cc3)nn2c1C, the “activity, negative = inhibition” value was inactive: -2.36%. For COC(=O)c1ccc(C(=O)Nc2ccc(N)cc2N)cc1, the Potency was inconclusive: 10 µM [inhibitor, partial curve]. For NNc1nc2c(-c3ccc(F)cc3)nnn2c2ccccc12, the Potency was inconclusive: 8.89 µM [inhibitor, partial curve]. In the case of COc1cc(OC)cc(C(=O)N2CCN(Cc3ccc4c(c3)OCO4)CC2)c1, the Potency was inconclusive: 12.6 µM [inhibitor, partial curve]. In the case of O=C(NN=C1CCCCCCC1)c1ccccn1, the Potency was inconclusive: 22.3 µM [inhibitor, single point]. O=C(O)c1ccc2c(c1)C(=O)N(Cc1ccccc1)C2=O was tested, and the Potency was inconclusive: 15.8 µM [activator, partial curve]. In the case of c1ccc(CCNc2ccnc3cc4ccccc4cc23)cc1, the Potency was inconclusive: 9.98 µM [inhibitor, partial curve]. With C=CCNC(=S)NNC(=O)c1ccco1 the Potency was inconclusive: 9.98 µM [inhibitor, partial curve]. For CCCCCNCC(=O)Nc1cccc(C(=O)Nc2cccc(C(F)(F)F)c2)c1, the Potency was inconclusive: 15.8 µM [inhibitor, partial curve]. CSc1ccccc1NC(=O)c1cnccn1 was tested, and the “activity, negative = inhibition” value was inactive: 2.65%. In the case of CN(CC(O)COc1ccc2ccccc2c1)C1CCCCC1 (stereo unspecified), the Potency was inconclusive: 35.5 µM [inhibitor, single point]. Cc1cccc(C(=O)NC2C(=O)NNC2c2ccc(Cl)cc2)c1 (stereo unspecified) was tested, and the Potency was inconclusive: 35.4 µM [inhibitor, partial curve]. For COc1ccc(O[C@H]2C=C[C@@H](c3ccccc3)O[C@@H]2CO/N=C(\C)CCN2CCCCc3nc(C)c(C)cc32)cc1, the Potency was “inactive”. For CC(Cc1n[nH]c(=S)n1N)c1ccccc1 (stereo unspecified), the Potency was inconclusive: 31.6 µM [inhibitor, single point]. FC(F)(F)c1n[nH]c(=S)n1/N=C/c1ccco1 was tested, and the Potency was inconclusive: 17.7 µM [inhibitor, single point]. With CCOC(=O)C1=C(Cc2ccc(C)cc2)C(=O)c2ccccc2C1=O the Potency was active: 3.97 µM. For CCSC(=S)c1c(C)[nH]n(-c2ccccc2)c1=O, the Potency was inconclusive: 22.3 µM [inhibitor, single point]. Cc1ccc(N2C(=O)C(CN(C)C)C2c2ccccc2)cc1 (stereo unspecified) was tested, and the “activity, negative = inhibition” value was inactive: -0.0985%. With O=S(=O)(Nc1cccc2cccnc12)c1ccc(Br)cc1 the Potency was inconclusive: 17.7 µM [inhibitor, partial curve]. Cc1nc2c([nH]1)C1(CCN(Cc3ccccc3)CC1)C(C#N)=C(N)O2 was tested, and the Potency was inconclusive: 25.1 µM [inhibitor, single point]. CN(CCN(C)C(C)(C)C)C(=O)C(c1ccccc1)c1ccccc1 was tested, and the Potency was inconclusive: 17.7 µM [inhibitor, partial curve].
